Measurements: patent US9550741B2, “Benzoisothiazole compounds and methods of treating schizophrenia” (SHANGHAI INSTITUTE OF PHARMACEUTICAL INDUSTRY, priority 2013, dated 2017)
Where two headings read alike, the source gives them in different places.

What was measured:
5-HT1A receptor = 5-HT1A receptor (Homo sapiens (Human), UniProt P08908); experiment: 5-HT1A receptor binding test; conditions: [3H]8-OH-DPAT, HEK-293 cells expressing 5-HT1A receptors
Method: Cells: HEK-293 cells stably expressing 5-HT1A receptors as obtained by gene recombination are cultured for 3-5 days in cell culture medium DMEM supplemented with 10% serum.
Competitive inhibition ratio of each compound at the concentration of 10 μmol/L to inhibit the binding of [^3H]8-OH-DPAT to 5-HT1A receptor is determined for primary screening.
The components are mixed to homogeneity, and then the above tubes are transferred to water bath at 30° C. (1 h), removed into ice bath immediately, and suction filtered on Harvest (with ice cold Tris eluate for 5 times).

D2 receptor = D2 receptor (Homo sapiens (Human), UniProt P14416); experiment: Dopamine D2 receptor binding test; conditions: [3H]Spiperone, D2 receptor expressed in HEK293 cells; read-out: Affinity of the compound to D2 receptor, Ki value
Excerpt: This experiment utilizes the plasmid vector containing the gene of D2 receptor protein for transfecting HEK293 cells by calcium phosphate transfection method.
(§1) Beckman LS-6500 multifunction liquid scintillation counter.

5-HT2A receptor = 5-HT2A receptor (Homo sapiens (Human), UniProt P28223); experiment: 5-HT2A receptor binding test
Excerpt: as §1

[1] = target: human recombinant D3 receptor (Homo sapiens (Human), UniProt P35462); experiment: Dopamine D3 receptor binding test; conditions: [3H]methyl-spiperone 0.3 nM, human recombinant D3 receptor in CHO cells; read-out: Affinity of the compound to D3 receptor, Ki value
Method: With [^3H]methyl-spiperone (0.3 nM) as the ligand and (+)-butaclamol (10 LM) for determining non-specific binding, binding tests are carried out on human recombinant D3 receptor (expressed in CHO cells).

[2] = read-out: Affinity of the compound to 5-HT1A receptor, Ki value
[3] = read-out: Affinity of the compound to 5-HT2A receptor, Ki value, [3H]-Ketanserin, 5-HT2A receptor expressed in HEK293 cells
[4] = read-out: Affinity of the compound to 5-HT2A receptor, Ki value

Sequence of UniProt P08908 (P08908 whole entry): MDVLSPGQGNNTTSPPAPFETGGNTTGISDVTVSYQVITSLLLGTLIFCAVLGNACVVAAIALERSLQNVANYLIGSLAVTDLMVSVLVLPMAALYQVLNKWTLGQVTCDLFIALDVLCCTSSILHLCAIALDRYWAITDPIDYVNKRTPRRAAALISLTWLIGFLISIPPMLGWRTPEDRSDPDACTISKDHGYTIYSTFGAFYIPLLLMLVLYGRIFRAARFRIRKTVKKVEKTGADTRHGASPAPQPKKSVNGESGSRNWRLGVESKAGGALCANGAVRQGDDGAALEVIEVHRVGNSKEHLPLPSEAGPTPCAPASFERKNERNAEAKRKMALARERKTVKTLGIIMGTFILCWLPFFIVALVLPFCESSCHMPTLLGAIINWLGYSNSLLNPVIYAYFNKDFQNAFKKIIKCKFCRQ
Sequence of UniProt P35462 (P35462 whole entry): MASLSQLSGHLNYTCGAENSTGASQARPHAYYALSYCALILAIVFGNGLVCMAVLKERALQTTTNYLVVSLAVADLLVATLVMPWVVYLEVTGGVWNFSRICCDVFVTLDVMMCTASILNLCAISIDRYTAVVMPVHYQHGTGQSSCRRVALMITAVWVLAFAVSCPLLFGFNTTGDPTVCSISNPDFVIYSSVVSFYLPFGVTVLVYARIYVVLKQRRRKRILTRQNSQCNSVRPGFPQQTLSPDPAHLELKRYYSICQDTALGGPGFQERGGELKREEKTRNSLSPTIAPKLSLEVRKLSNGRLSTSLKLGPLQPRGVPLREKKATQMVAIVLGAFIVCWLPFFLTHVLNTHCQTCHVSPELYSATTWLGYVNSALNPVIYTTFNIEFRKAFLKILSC
Sequence of UniProt P28223 (P28223 whole entry): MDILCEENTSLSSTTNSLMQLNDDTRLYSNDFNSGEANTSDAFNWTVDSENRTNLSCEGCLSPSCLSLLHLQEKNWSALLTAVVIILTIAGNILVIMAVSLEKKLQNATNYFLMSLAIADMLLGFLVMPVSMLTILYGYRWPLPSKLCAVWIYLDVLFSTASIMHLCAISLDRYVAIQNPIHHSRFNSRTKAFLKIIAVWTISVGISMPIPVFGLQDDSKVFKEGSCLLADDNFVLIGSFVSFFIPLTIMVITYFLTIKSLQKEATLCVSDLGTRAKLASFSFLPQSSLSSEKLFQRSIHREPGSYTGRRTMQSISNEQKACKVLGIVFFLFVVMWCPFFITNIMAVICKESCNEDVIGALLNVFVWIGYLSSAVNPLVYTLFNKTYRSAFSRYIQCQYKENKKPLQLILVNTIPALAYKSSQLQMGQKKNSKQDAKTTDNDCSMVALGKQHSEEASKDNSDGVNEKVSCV
Sequence of UniProt P14416 (P14416 whole entry): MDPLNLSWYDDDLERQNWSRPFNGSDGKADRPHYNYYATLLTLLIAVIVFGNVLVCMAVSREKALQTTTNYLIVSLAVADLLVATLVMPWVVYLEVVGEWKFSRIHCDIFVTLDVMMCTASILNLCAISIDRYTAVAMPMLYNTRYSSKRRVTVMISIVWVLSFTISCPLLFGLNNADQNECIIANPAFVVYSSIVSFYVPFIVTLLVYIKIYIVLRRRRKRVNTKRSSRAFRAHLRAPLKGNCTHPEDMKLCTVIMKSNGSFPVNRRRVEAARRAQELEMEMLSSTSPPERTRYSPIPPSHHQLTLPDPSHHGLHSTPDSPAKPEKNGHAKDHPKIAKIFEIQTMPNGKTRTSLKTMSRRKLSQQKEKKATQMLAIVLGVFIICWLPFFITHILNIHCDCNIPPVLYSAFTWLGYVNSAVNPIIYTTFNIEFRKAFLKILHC

SMILES	Ki (5-HT1A receptor) [nM]	Ki (D2 receptor) [nM]	Ki (5-HT2A receptor; [3H]-Ketanserin, 5-HT2A receptor expressed in HEK293 cells) [nM]	Ki [1] [nM]	Ki (5-HT1A receptor; [2]) [nM]	Ki (5-HT2A receptor; [3]) [nM]	Ki (5-HT2A receptor; [4]) [nM]
N#Cc1ccc2sc(S(=O)(=O)N[C@H]3CC[C@H](CCN4CCN(c5nsc6ccccc56)CC4)CC3)cc2c1 [II-12, trans-N-(4-(2-(4-(benzo[d]isothiazol-3-yl)piperazin-1-yl)ethyl)cyclohexyl)-5-cyanobenzo[b]thienyl-2-sulfamide]	1.99	8.82	5.2	1.99	–	–	–
Cc1ccc2sc(S(=O)(=O)N[C@H]3CC[C@H](CCN4CCN(c5nsc6ccccc56)CC4)CC3)cc2c1 [II-13, trans-N-(4-(2-(4-(benzo[d]isothiazol-3-yl)piperazin-1-yl)ethyl)cyclohexyl)-5-methylbenzo[b]thienyl-2-sulfamide]	–	4.5	–	0.85	8.66	0.93	–
O=[N+]([O-])c1ccc2sc(S(=O)(=O)N[C@H]3CC[C@H](CCN4CCN(c5nsc6ccccc56)CC4)CC3)cc2c1 [II-14, trans-N-(4-(2-(4-(benzo[d]isothiazol-3-yl)piperazin-1-yl)ethyl)cyclohexyl)-5-nitrobenzo[b]thienyl-2-sulfamide]	–	6.49	–	9.37	12.8	–	4.62
O=S(=O)(N[C@H]1CC[C@@H](CCN2CCN(c3nsc4ccccc34)CC2)CC1)c1ccco1 [II-18, cis-N-(4-(2-(4-(benzo[d]isothiazol-3-yl)piperazin-1-yl)ethyl)cyclohexyl)furyl-2-sulfamide]	–	1.22	–	5.37	2.54	0.74	–
O=S(=O)(N[C@H]1CC[C@@H](CCN2CCN(c3nsc4ccccc34)CC2)CC1)c1cc2ccccc2s1 [II-19, cis-N-(4-(2-(4-(benzo[d]isothiazol-3-yl)piperazin-1-yl)ethyl)cyclohexyl)benzo[b]thienyl-2-sulfamide]	–	1.78	–	1.7	7.03	2.05	–
Cc1ccc(S(=O)(=O)N[C@H]2CC[C@@H](CCN3CCN(c4nsc5ccccc45)CC3)CC2)o1 [II-22, cis-N-(4-(2-(4-(benzo[d]isothiazol-3-yl)piperazin-1-yl)ethyl)cyclohexyl)-5-methylfuryl-2-sulfamide]	–	2.09	–	1.44	2.02	–	1.65
O=C(N[C@H]1CC[C@H](CCN2CCN(c3nsc4ccccc34)CC2)CC1)OCc1cc2ccccc2o1 [III-12, trans-(4-(2-(4-(benzo[d]isothiazol-3-yl)piperazin-1-yl)ethyl)cyclohexyl)benzofuryl-2-methylcarbamate]	–	5.73	–	6.53	2.63	–	2.58
O=C(N[C@H]1CC[C@H](CCN2CCN(c3nsc4ccccc34)CC2)CC1)OCc1cccs1 [III-13, trans-(4-(2-(4-(benzo[d]isothiazol-3-yl)piperazin-1-yl)ethyl)cyclohexyl)thienyl-2-methylcarbamate]	–	2.54	–	0.95	1.76	0.6	–
O=C(NCCc1ccccc1)N[C@H]1CC[C@H](CCN2CCN(c3nsc4ccccc34)CC2)CC1 [IV-2, trans-1-(4-(2-(4-(benzo[d]isothiazol-3-yl)piperazin-1-yl)ethyl)cyclohexyl)-3-phenylethyl urea]	–	9.15	–	3.81	8.03	4.21	–
O=C(Nc1ccco1)N[C@H]1CC[C@H](CCN2CCN(c3nsc4ccccc34)CC2)CC1 [IV-4, trans-1-(4-(2-(4-(benzo[d]isothiazol-3-yl)piperazin-1-yl)ethyl)cyclohexyl)-3-(furan-2-yl)urea]	–	0.8	–	1.04	2.64	–	1.04
O=C(Nc1cc2ccccc2s1)N[C@H]1CC[C@H](CCN2CCN(c3nsc4ccccc34)CC2)CC1 [IV-5, trans-1-(benzo[b]thien-2-yl)-3-(4-(2-(4-(benzo[d]isothiazol-3-yl)piperazin-1-yl)ethyl)cyclohexyl)urea]	–	6.77	–	10	14.8	8.93	–
COc1cccc(NC(=O)N[C@H]2CC[C@H](CCN3CCN(c4nsc5ccccc45)CC3)CC2)c1 [IV-9, trans-1-(4-(2-(4-(benzo[d]isothiazol-3-yl)piperazin-1-yl)ethyl)cyclohexyl)-3-(3-methoxyphenyl)urea]	–	3.01	–	2.71	2.88	2.84	–
O=C(Nc1cccc([N+](=O)[O-])c1)N[C@H]1CC[C@H](CCN2CCN(c3nsc4ccccc34)CC2)CC1 [IV-10, trans-1-(4-(2-(4-(benzo[d]isothiazol-3-yl)piperazin-1-yl)ethyl)cyclohexyl)-3-(3-nitrophenyl)urea]	–	3.64	–	4.15	9.07	–	5.01
O=C(Nc1ccccc1)N[C@H]1CC[C@@H](CCN2CCN(c3nsc4ccccc34)CC2)CC1 [IV-12, cis-1-(4-(2-(4-(benzo[d]isothiazol-3-yl)piperazin-1-yl)ethyl)cyclohexyl)-3-phenylurea]	–	1.86	–	2.05	5.14	2.4	–
O=C(Nc1ccco1)N[C@H]1CC[C@@H](CCN2CCN(c3nsc4ccccc34)CC2)CC1 [IV-14, cis-1-(4-(2-(4-(benzo[d]isothiazol-3-yl)piperazin-1-yl)ethyl)cyclohexyl)-3-(furan-2-yl)urea]	–	2.07	–	2.3	6.09	–	1.82
